Results reported in the supplement of paper PMC9046079.
Counter-ions that a name gives are not always drawn. ± gives the standard deviation of the averaged measurements. This is one part of the list.

How the values were obtained:
[1] = tested on: murine small intestinal organoids (ENR+CD Paneth differentiation); assay: cellular ATP (CellTiter-Glo 3D) relative to plate median (log10 fold change); higher = more viable cells; details: 6 d
[2] = tested on: murine small intestinal organoids (ENR+CD Paneth differentiation); assay: carbachol-stimulated secreted lysozyme activity relative to plate median (log10 fold change); higher = more Paneth cell lysozyme secretion; details: 6 d, carbachol 10 µM
[3] = tested on: murine small intestinal organoids (ENR+CD Paneth differentiation); assay: basal (non-stimulated) secreted lysozyme activity relative to plate median (log10 fold change); higher = more Paneth cell lysozyme secretion; details: 6 d
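Throughout, for basal (non-stimulated) secreted lysozyme activity relative to plate median: ISC-enriched organoid precursors grown as 2.5D pseudo-monolayer on Matrigel, compound given on day 0 and day 3, plate values LOESS-normalized before median fold change, three murine donors.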
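Throughout, for cellular ATP (CellTiter-Glo 3D) relative to plate median: 2.5D pseudo-monolayer culture of ISC-enriched organoids partly embedded atop Matrigel, compound added on day 0 and again on day 3, per-plate LOESS correction before median fold change.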

SMILES | cellular ATP (log10) ([1]; 0.08 µM) | cellular ATP (log10) ([1]; 0.4 µM) | cellular ATP (log10) ([1]; 2 µM) | cellular ATP (log10) ([1]; 10 µM) | carbachol-stimulated secreted lysozyme activity (log10) ([2]; 0.08 µM) | carbachol-stimulated secreted lysozyme activity (log10) ([2]; 0.4 µM) | carbachol-stimulated secreted lysozyme activity (log10) ([2]; 2 µM) | carbachol-stimulated secreted lysozyme activity (log10) ([2]; 10 µM) | basal (log10) ([3]; 0.08 µM) | basal (log10) ([3]; 0.4 µM) | basal (log10) ([3]; 2 µM) | basal (log10) ([3]; 10 µM)
O=S(=O)(NCCNCC=Cc1ccc(Br)cc1)c1cccc2cnccc12 | 0.35 ± 0.17 | 0.398 ± 0.26 | 0.421 ± 0.34 | 0.385 ± 0.14 | 0.0418 ± 0.085 | 0.158 ± 0.18 | 0.0652 ± 0.26 | -0.0576 ± 0.33 | 0.14 ± 0.083 | 0.0798 ± 0.016 | 0.0858 ± 0.11 | 0.132 ± 0.27
O=C(O)/C=C/c1ccc(Cn2ccnc2)cc1 [Ozagrel] | 0.0547 ± 0.14 | 0.224 ± 0.19 | -0.0625 ± 0.088 | 0.113 ± 0.086 | 0.201 ± 0.31 | 0.137 ± 0.11 | 0.12 ± 0.12 | 0.0118 ± 0.023 | 0.074 ± 0.093 | 0.0437 ± 0.039 | 0.0801 ± 0.072 | -0.00776 ± 0.015
Cc1cc(Nc2ccc(NC(=O)c3ccc(Nc4ccnc5ccccc45)cc3)cc2)nc(N)n1 | 0.215 ± 0.44 | 0.265 ± 0.29 | 0.317 ± 0.23 | 0.208 ± 0.22 | 0.0567 ± 0.056 | 0.156 ± 0.016 | 0.0593 ± 0.047 | -0.0522 ± 0.0079 | 0.0714 ± 0.035 | 0.142 ± 0.0062 | 0.115 ± 0.11 | -0.0459 ± 0.031
COc1cc2c(N3CCN(C(=O)Nc4ccc(OC(C)C)cc4)CC3)ncnc2cc1OCCCN1CCCCC1 [Tandutinib (MLN518)] | 0.571 ± 0.15 | 0.211 ± 0.24 | 0.256 ± 0.15 | 0.46 ± 0.37 | -0.00852 ± 0.17 | 0.171 ± 0.17 | 0.12 ± 0.08 | 0.169 ± 0.11 | 0.0544 ± 0.16 | 0.13 ± 0.099 | 0.141 ± 0.076 | 0.0796 ± 0.095
CN1C(=O)C(Cc2c[nH]c3ccccc23)NC1=S (stereo unspecified) [Necrostatin-1] | 0.102 ± 0.19 | 0.168 ± 0.41 | 0.0111 ± 0.31 | 0.137 ± 0.5 | 0.0193 ± 0.019 | -0.0489 ± 0.1 | 0.0116 ± 0.074 | 0.252 ± 0.086 | 0.0602 ± 0.099 | 0.02 ± 0.062 | 0.154 ± 0.23 | 0.057 ± 0.061
CNC(=O)c1ccc(N2C(=S)N(c3ccc(C#N)c(C(F)(F)F)c3)C(=O)C2(C)C)cc1F [Enzalutamide (MDV3100)] | 0.195 ± 0.29 | 0.256 ± 0.25 | 0.0759 ± 0.26 | 0.146 ± 0.47 | 0.153 ± 0.053 | 0.342 ± 0.43 | 0.0633 ± 0.033 | 0.0109 ± 0.3 | 0.162 ± 0.071 | 0.166 ± 0.17 | 0.0241 ± 0.038 | 0.0942 ± 0.19
NS(=O)(=O)c1ccc(NC(=O)Nc2ccc(F)cc2)cc1 | -0.0362 ± 0.039 | 0.227 ± 0.076 | -0.137 ± 0.18 | 0.0278 ± 0.41 | 0.0595 ± 0.076 | 0.127 ± 0.047 | 0.162 ± 0.38 | 0.0216 ± 0.019 | 0.0941 ± 0.12 | 0.0658 ± 0.059 | 0.071 ± 0.11 | 0.0117 ± 0.047
CCc1c2c(nc3ccc(OC(=O)N4CCC(N5CCCCC5)CC4)cc13)-c1cc3c(c(=O)n1C2)COC(=O)[C@]3(O)CC [Irinotecan] | -0.111 ± 0.1 | -0.784 ± 0.34 | -0.785 ± 0.36 | -1.24 ± 0.29 | -0.0596 ± 0.1 | -0.178 ± 0.15 | -0.297 ± 0.059 | -0.325 ± 0.007 | -0.0313 ± 0.086 | -0.0724 ± 0.07 | -0.17 ± 0.058 | -0.163 ± 0.09
CN(C)C(=O)c1ccc(S(=O)(=O)c2ccc(NC(=O)C(C)(O)C(F)(F)F)c(Cl)c2)cc1 (stereo unspecified) | -0.334 ± 0.08 | -0.158 ± 0.17 | -0.255 ± 0.14 | -0.35 ± 0.067 | 0.0653 ± 0.055 | -0.0874 ± 0.046 | -0.241 ± 0.2 | -0.137 ± 0.12 | 0.087 ± 0.04 | -0.0281 ± 0.082 | -0.0178 ± 0.1 | -0.0507 ± 0.13
O=C(c1cncc(Br)c1)N1CCC(N2CCCC2)CC1 | -0.0532 ± 0.22 | 0.047 ± 0.082 | -0.263 ± 0.7 | 0.0833 ± 0.067 | 0.105 ± 0.13 | 0.061 ± 0.13 | 0.0667 ± 0.09 | -0.0274 ± 0.11 | 0.0587 ± 0.14 | 0.00788 ± 0.081 | -0.00533 ± 0.077 | 0.0227 ± 0.076
Nc1cccc2c1C(=O)N(C1CCC(=O)NC1=O)C2=O (stereo unspecified) [Pomalidomide] | 0.0629 ± 0.11 | 0.224 ± 0.087 | -0.216 ± 0.38 | -0.305 ± 0.53 | -0.0654 ± 0.011 | -0.141 ± 0.074 | -0.139 ± 0.0077 | -0.253 ± 0.0092 | -0.00216 ± 0.04 | -0.00147 ± 0.068 | -0.0383 ± 0.031 | -0.126 ± 0.033
C[C@H](Cn1cnc2c(N)ncnc21)OCP(=O)(O)O [Tenofovir] | -0.0554 ± 0.21 | -0.16 ± 0.2 | -0.19 ± 0.03 | -0.248 ± 0.36 | -0.0732 ± 0.29 | 0.189 ± 0.44 | 0.086 ± 0.4 | -0.183 ± 0.27 | -0.0847 ± 0.16 | -0.0488 ± 0.079 | -0.0581 ± 0.06 | -0.134 ± 0.12
Cc1ccccc1C(=O)Nc1ccc(C(=O)N2CCCC(N(C)C)c3ccccc32)cc1 (stereo unspecified) [Mozavaptan] | 0.32 ± 0.44 | 0.235 ± 0.39 | 0.108 ± 0.23 | -0.336 ± 0.25 | -0.0471 ± 0.076 | 0.203 ± 0.28 | 0.104 ± 0.052 | -0.322 ± 0.07 | 0.0671 ± 0.17 | -0.0268 ± 0.073 | 0.0338 ± 0.022 | -0.201 ± 0.071
CN[C@H]1CC[C@@H](c2ccc(Cl)c(Cl)c2)c2ccccc21 [Sertraline HCl] | 0.0319 ± 0.28 | -0.0203 ± 0.11 | 0.0156 ± 0.03 | -0.152 ± 0.3 | -0.148 ± 0.14 | -0.0274 ± 0.088 | 0.0512 ± 0.04 | 0.108 ± 0.11 | -0.0404 ± 0.088 | -0.0255 ± 0.07 | 0.0367 ± 0.079 | 0.0797 ± 0.14
CN1CC(=O)N2[C@H](c3ccc4c(c3)OCO4)c3[nH]c4ccccc4c3C[C@@H]2C1=O [Tadalafil] | 0.451 ± 0.23 | 0.211 ± 0.51 | -0.0883 ± 1.1 | -0.315 ± 1.1 | 0.0904 ± 0.046 | -0.219 ± 0.21 | -0.122 ± 0.54 | -0.262 ± 0.31 | 0.118 ± 0.16 | -0.0414 ± 0.22 | 0.0177 ± 0.3 | -0.0452 ± 0.33
N#CC(=C(/N)Sc1ccccc1N)/C(C#N)=C(\N)Sc1ccccc1N | -0.618 ± 0.98 | -0.452 ± 0.69 | -0.439 ± 0.71 | -0.533 ± 0.82 | -0.000683 ± 0.35 | -0.0237 ± 0.15 | -0.0822 ± 0.14 | 0.0293 ± 0.28 | 0.0139 ± 0.18 | 0.00714 ± 0.12 | -0.0361 ± 0.092 | -0.00844 ± 0.18
O=C(O)c1ccc(N2C(=O)C(=Cc3ccc(-c4ccc([N+](=O)[O-])cc4)o3)C=C2c2ccccc2)cc1 | 0.246 ± 0.13 | 0.362 ± 0.47 | 0.00625 ± 0.093 | -0.0108 ± 0.26 | 0.12 ± 0.08 | -0.025 ± 0.095 | 0.0788 ± 0.07 | 0.0952 ± 0.25 | 0.1 ± 0.049 | -0.0177 ± 0.088 | 0.151 ± 0.27 | 0.00707 ± 0.075
FC(F)(F)c1ccc(/C=C/c2nc(COc3ccc(CCCCn4ccnn4)cc3)co2)cc1 [Mubritinib (TAK 165)] | -0.524 ± 0.2 | -0.34 ± 0.24 | -0.53 ± 0.18 | -0.519 ± 0.32 | -0.138 ± 0.0081 | -0.17 ± 0.17 | -0.334 ± 0.059 | -0.281 ± 0.0048 | -0.0574 ± 0.063 | -0.194 ± 0.14 | -0.224 ± 0.076 | -0.24 ± 0.02
